The campaign covered roughly 360,000 compounds. About 16,000 (4.4%) were called active. The inconclusive results got no clear call from the source; some entries with a clear call stand among them for comparison. Calls come from the whole dose curve; as a rule, active = well fitted inhibition curve with a large enough effect; inconclusive = small, poorly fitted or top-dose-only effect; inactive = no such curve, though single readings can be large or run the other way. Potencies of inconclusive entries are doubtful fits and often do not repeat.
Target: Bromodomain adjacent to zinc finger domain protein 2B (Homo sapiens) (UniProt Q9UIF8)
Sequence of UniProt Q9UIF8 (Q9UIF8 whole entry, looked up, the tested form may be a part): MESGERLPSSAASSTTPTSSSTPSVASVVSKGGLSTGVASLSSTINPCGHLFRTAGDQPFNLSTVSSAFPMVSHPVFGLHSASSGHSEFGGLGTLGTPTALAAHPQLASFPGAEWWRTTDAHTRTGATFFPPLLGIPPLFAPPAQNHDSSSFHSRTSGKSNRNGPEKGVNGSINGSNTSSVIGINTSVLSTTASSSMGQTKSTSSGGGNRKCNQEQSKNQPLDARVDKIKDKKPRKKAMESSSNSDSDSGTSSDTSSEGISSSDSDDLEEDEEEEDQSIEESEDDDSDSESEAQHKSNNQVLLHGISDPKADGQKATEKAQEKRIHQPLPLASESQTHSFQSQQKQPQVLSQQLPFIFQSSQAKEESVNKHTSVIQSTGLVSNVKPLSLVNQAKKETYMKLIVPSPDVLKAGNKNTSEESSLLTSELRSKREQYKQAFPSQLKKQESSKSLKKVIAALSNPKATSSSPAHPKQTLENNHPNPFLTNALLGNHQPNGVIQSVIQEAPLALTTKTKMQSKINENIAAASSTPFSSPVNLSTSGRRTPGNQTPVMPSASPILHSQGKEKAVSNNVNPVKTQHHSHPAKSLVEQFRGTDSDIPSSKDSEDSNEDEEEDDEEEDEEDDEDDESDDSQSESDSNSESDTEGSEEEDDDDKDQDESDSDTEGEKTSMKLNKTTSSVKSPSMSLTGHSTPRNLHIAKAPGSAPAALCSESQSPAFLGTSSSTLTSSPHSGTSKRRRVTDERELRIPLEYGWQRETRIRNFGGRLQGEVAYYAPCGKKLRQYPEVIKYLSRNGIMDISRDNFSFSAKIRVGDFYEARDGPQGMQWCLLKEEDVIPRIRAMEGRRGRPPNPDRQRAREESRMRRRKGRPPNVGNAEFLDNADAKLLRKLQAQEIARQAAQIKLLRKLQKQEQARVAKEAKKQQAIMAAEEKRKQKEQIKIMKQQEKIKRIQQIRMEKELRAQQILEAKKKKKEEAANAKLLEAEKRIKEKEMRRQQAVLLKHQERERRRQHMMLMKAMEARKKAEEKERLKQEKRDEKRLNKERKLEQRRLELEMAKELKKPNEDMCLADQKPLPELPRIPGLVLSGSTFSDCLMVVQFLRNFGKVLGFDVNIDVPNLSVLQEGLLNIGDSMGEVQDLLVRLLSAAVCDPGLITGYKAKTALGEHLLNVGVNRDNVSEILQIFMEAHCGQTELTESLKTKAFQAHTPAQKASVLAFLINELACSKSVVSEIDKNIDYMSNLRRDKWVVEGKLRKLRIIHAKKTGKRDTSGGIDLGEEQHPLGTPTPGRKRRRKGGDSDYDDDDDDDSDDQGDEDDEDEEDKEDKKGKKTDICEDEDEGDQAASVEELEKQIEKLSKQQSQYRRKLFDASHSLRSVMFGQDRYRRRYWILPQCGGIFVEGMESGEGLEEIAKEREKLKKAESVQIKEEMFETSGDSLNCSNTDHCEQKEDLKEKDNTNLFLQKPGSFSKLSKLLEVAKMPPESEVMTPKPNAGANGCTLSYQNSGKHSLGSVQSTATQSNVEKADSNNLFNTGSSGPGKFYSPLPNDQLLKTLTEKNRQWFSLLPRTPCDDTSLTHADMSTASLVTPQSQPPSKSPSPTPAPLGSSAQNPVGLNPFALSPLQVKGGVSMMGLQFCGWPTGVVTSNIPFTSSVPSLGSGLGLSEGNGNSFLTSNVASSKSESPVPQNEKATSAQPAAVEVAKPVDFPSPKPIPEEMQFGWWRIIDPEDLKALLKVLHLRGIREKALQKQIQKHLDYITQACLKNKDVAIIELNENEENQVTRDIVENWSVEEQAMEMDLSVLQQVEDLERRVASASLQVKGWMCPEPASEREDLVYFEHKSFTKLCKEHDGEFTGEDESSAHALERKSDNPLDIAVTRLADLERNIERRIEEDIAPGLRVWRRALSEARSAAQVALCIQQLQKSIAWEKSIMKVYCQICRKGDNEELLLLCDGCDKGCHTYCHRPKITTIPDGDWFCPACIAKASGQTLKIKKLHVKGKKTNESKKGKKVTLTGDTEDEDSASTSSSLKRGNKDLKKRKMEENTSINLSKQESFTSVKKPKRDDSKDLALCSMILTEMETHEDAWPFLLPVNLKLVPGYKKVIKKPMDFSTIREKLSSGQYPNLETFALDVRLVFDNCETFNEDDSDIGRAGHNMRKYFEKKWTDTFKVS
Assay: qHTS Assay for Inhibitors of BAZ2B; note: nearly all actives have a fitted effect of over 60% in size
Settings: AlphaScreen BAZ2B-H3K14Ac peptide displacement; activity change, negative = inhibition: at 114 µM (top of the series) unless noted
Summary of the method: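 Multi-concentration screen (max 110 uM) measuring displacement of acetylated histone H3 peptide from BAZ2B by AlphaScreen, using 50 nM protein, 50 nM peptide and 10 ug/mL streptavidin donor plus Ni-chelate acceptor beads.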
% is set by controls: 0 for no effect and ±100 for the full control effect; potency is the fitted concentration of half-maximal effect; tags give direction and shape of the fitted curve.

Row | SMILES | activity change, negative = inhibition | Potency
1 | CCC(C)c1ccc(N(CC(=O)NC(C)(C)C)C(=O)CNC(=O)c2cccs2)cc1 (stereo not given) | inactive: 1.13% | 
2 | O=C(CSc1nc(C2CC2)nc2ccccc12)Nc1ccccc1 | inactive: 1.17% | 
3 | CCCCCCCN1C(N(C)C)=NC[C@@H]1Cc1ccccc1 | inactive: 9.71% | 
4 | CCOC(=O)c1c(N)sn(-c2ccccc2C)c1=S |  | inconclusive: 50.1 µM [inhibitor, partial curve]
5 | COc1ccc(-c2[nH]ncc2CNC(C)c2ccccc2Cl)cc1F (stereo not given) |  | inconclusive: 79.4 µM [inhibitor, single point]
6 | Cn1ccnc1SCC(=O)Nc1cccc(S(=O)(=O)N2CCCCC2)c1 |  | inconclusive: 44.7 µM [inhibitor, partial curve]
7 | COC/C=C/C1=CC2=CC(=O)C(C)(OC(=O)c3cnc4ccccc4n3)C(=O)C2=CN1c1ccc(CO)cc1 (stereo not given) |  | active: 10 µM
8 | COc1ccc(OC)c(CNS(=O)(=O)c2ccc(-c3coc(C)n3)cc2)c1 | inactive: -27.6% | 
9 | CCC1(c2ccc(C)cc2)NC(=O)N(C(C)C(=O)Nc2ccc(N3CCOCC3)cc2)C1=O (stereo not given) | inactive: -31.2% | 
10 | C=C(C)c1ccccc1NC(=O)CCN1C(=O)c2ccccc2S1(=O)=O | inactive: -19.7% | 
11 | Cc1nn(-c2ccccc2)c(Cl)c1/C=N/Nc1ccc(Cl)c(C(=O)O)c1 |  | inconclusive: 89.1 µM [inhibitor, single point]
12 | COc1ccc(-c2nn(CCC#N)cc2C(=O)Nc2ccccn2)cc1OC |  | inconclusive: 79.4 µM [inhibitor, single point]
13 | CC1=CC2=NC(=O)CC(C)(C(=O)N(CC(=O)NC3CCCC3)c3cc(C)cc(C)c3)N2C=C1 (stereo not given) |  | inconclusive: 100 µM [inhibitor, partial curve]
14 | Cc1ccc(N2C(=O)C3ON(c4ccccc4)C(CC(C)C)C3C2=O)cc1 (stereo not given) | inactive: 1.45% | 
15 | O=C(NCc1ccco1)c1cc(S(=O)(=O)N2CCOCC2)ccc1Br |  | inconclusive: 50.1 µM [inhibitor, partial curve, poor fit]
16 | S=C(NCCCc1ccccc1)NC1CCCCC1 |  | inconclusive: 89.1 µM [inhibitor, partial curve]
17 | O=C(COc1ccccc1)N1CCN(c2ccc([N+](=O)[O-])c(N3CCCCC3)c2)CC1 |  | inconclusive: 39.8 µM [inhibitor, partial curve]
18 | CCCN1CCC(NC(=O)C2CC=CCC2C(=O)O)CC1 (stereo not given) | inactive: -2.67% | 
19 | COc1ccc(C(=O)C2C(c3ccc(-c4ccccc4[N+](=O)[O-])o3)NC(=O)NC2(O)C(F)(F)F)cc1 (stereo not given) |  | inconclusive: 44.7 µM [inhibitor, partial curve]
20 | CCn1ncc(-c2csc(N)n2)c1C |  | inconclusive: 3.55 µM [inhibitor, full curve, poor fit]
21 | O=C(Cc1ccccc1Cl)Nc1ccc(S(=O)(=O)Nc2nccs2)cc1 | inactive: -21.6% | 
22 | CN(C)CCCOc1ccc(Cl)cc1Br |  | active: 44.7 µM
23 | Cc1ccc(C)c(NC(=O)CN(C)S(=O)(=O)c2ccc(F)cc2)c1 |  | inconclusive: 100 µM [inhibitor, single point]

Row | SMILES | activity change, negative = inhibition | Potency
24 | CCCCOc1ccc(OCCNC(=O)c2ccco2)cc1 | inactive: 11% | 
25 | Clc1ccc(-c2nnc3sc(Cc4cccs4)nn23)cc1 | inactive: 6.87% | 
26 | Cc1c(Cl)ccc2c1NC(=O)[C@]21N[C@@H](Cc2ccccc2)[C@H]2C(=O)N(c3ccc(F)cc3)C(=O)[C@H]21 |  | inconclusive: 100 µM [inhibitor, single point]
27 | Brc1cccc(CN2CCN(c3ncccn3)CC2)c1 |  | inconclusive: 89.1 µM [inhibitor, single point]
28 | Cc1cc(C)c(NC(=O)CSc2nncn3c2cc2oc(C)cc23)c(C)c1 |  | inconclusive: 79.4 µM [inhibitor, single point]
29 | COc1cccc(CN2CC(C(=O)N(C)Cc3nc(C)cs3)CCC2=O)c1 (stereo not given) |  | inconclusive: 89.1 µM [inhibitor, single point]
30 | C=CCNC(=O)c1onc(CSc2ccccc2CC)c1C(=O)O |  | inconclusive: 56.2 µM [inhibitor, partial curve]
31 | CC(C)CNC(=O)[C@H]1N2C(=O)c3ccccc3C2SC1(C)C (stereo not given in full) | inactive: -2.46% | 
32 | Cc1nnc(SCC2=C(C(=O)O)N3C(=O)C(NC(=O)COc4ccc(F)cc4)C3SC2)s1 (stereo not given) |  | inconclusive: 89.1 µM [inhibitor, single point]
33 | COc1ccccc1C(=O)Nc1c(C(=O)Nc2ccccc2F)oc2ccccc12 |  | inconclusive: 89.1 µM [inhibitor, single point]
34 | O=C(COc1ccccc1Cl)NCCNC(=O)c1ccccn1 | inactive: 1.16% | 
35 | CCOC(=O)CN1C(=O)/C(=C2\SC(=S)N(NC(=O)c3cccnc3)C2=O)c2ccccc21 |  | inconclusive: 89.1 µM [inhibitor, single point]
36 | CC(=O)c1cccc(NC(=O)CN2C(=O)c3ccccc3C2=O)c1 |  | inconclusive: 89.1 µM [inhibitor, single point]
37 | COc1cccc(CNS(=O)(=O)c2ccc3c(c2)C(C(C)C)C(=O)N3)c1 (stereo not given) | inactive: -2.58% [at 57.1 µM] | 
38 | Cc1ccc2cc(C(c3nnnn3Cc3ccccc3)N3CCN(c4ccccc4)CC3)c(=O)[nH]c2c1 (stereo not given) |  | inconclusive: 79.4 µM [inhibitor, single point]
39 | CN(C)CCNC(=O)C(=O)NCC(c1ccc2c(c1)OCO2)N1CCOCC1 (stereo not given) | inactive: 1.05% | 
40 | CCCCC(=O)N1CCc2cc(OC)c(OC)cc2C1COc1ccc(OC)cc1 (stereo not given) |  | inconclusive: 56.2 µM [inhibitor, partial curve]
41 | CN(C)S(=O)(=O)c1ccc(C(=O)NCCOc2ccc(F)cc2)cc1 | inactive: -11.1% | 
42 | Cc1cccc(NC(=O)CSc2nnc(-c3ccco3)c(-c3ccco3)n2)c1C |  | active: 35.5 µM
43 | CN1/C(=C\C(=S)NC(=O)c2ccc([N+](=O)[O-])cc2)C(C)(C)c2ccccc21 |  | inconclusive: 10 µM [inhibitor, full curve]
44 | CC1CCN(S(=O)(=O)c2ccc(NC(=O)CN3CCN(C)CC3)cc2)CC1 |  | inconclusive: 89.1 µM [inhibitor, single point]
45 | COc1ccc(Cl)cc1NC(=O)Cn1c(=O)c(-c2ccccc2NC(C)=O)nc2ccccc21 |  | inconclusive: 0.708 µM [inhibitor, full curve, poor fit]

Reference: PubChem BioAssay AID504333 (National Center for Advancing Translational Sciences (NCATS), 2011)
